# Some of the results follow. At the low end of the ranking, values are background and their order means little. Measured with an extract: partners may take part in the binding.
# Biological target: T1, HNF4alpha8 (COS-7 nuclear extract) (UniProt P41235-5)
# T1 sequence: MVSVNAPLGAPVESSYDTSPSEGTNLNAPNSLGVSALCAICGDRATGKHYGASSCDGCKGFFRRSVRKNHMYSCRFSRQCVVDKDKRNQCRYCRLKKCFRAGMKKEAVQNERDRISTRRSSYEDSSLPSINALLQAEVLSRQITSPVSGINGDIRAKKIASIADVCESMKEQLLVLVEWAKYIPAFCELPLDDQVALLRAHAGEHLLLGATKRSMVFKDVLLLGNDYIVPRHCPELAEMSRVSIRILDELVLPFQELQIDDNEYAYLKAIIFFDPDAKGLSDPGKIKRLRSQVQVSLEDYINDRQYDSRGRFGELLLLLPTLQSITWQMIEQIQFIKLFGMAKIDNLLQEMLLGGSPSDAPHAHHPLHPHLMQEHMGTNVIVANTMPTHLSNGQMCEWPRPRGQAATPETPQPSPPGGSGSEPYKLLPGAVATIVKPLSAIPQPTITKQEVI
# Assay: protein-binding microarray
# Conditions: COS-7 nuclear extract on double-stranded Agilent 4x180k PBM; binding buffer, salt, pH and temperature not given; high values mean tight binding; double strand, one strand shown; sequences stand for … in …GCCTAGGGAGATTAGAGTATCGGTCGA
row,Sequence,binding signal (log2 normalized intensity)
1,GCAGAGGGAGGACAAAGTTCTGTCCTTTGT,3.16
2,ACAGAAGCCAGAGGCAGCAAGGTCAAAGTG,1.66
3,TCCACTGGACAGCAGCTACATAAGGGTAGA,-1.26
4,CGGTGTGAGTGGTCCTTATCAGCATGGGTC,1.89
5,ATTGGAATGAGCCTCCTGAAGATCCCCTGT,2.69
6,AAGACATGAAAAGTGGAATGCGCTTTCATG,-1.3
7,GGCTTGAGCAGCTGGTGGAGGCGGTGCCAT,-1.28
8,GTCTGAGATATCTTTCTCTATAGTAATCTT,0.627
9,CCCATCACTACTCCAGGGAGAAACCTGCCA,-1.38
10,GGCATTCTGACCTTTGTCTCCAGGCAAACT,5.6
11,GGAAGCTGGGCAGGCGCCGACTGCCAGGAG,-1.35
12,ATGTTGGGCAACTACCTCAAAGTTTTGTTA,-0.292
13,CTCAGCACATGGCAGTGTACACTAGCCAAA,-1.42
14,CTAATAAATGATTCATTCAGCAAATATTGA,0.0735
15,GCTGTGCCGAGCCTGCAGGTGAATGGAAAC,-1.32
16,GGGTCTAGGTTGGAGGAGCTGAACTGTAAC,0.936
17,TGCTCTGGACATACCTCTAATCATAAAGCT,-1.3
18,TGGTAGGATTGTTTGGGGATTACACTAGAT,-0.85
19,TCCACAGTGCACATTCCAGAGAAATAGTGA,-1.03
20,CCTTCCCTCTGTCTTCAAAACCACACCCCT,4.26
21,TGGACCTCATTAATAGGGCAAGAGCTCAGA,-1.25
22,CTGGAGCAAAGGTCACTCTTGCTATGCCTT,5.81
23,AAGGTGTCAGGACCTTTCTTTATGGACCTT,4.53
24,CTAGTACTCCTGCCCCTGTGCAATACTTTC,2.52
25,TTGCACTGCTGGTTTTTGTCAAAGATAGTT,0.717

row,Sequence,binding signal (log2 normalized intensity)
1,TCAGCTGCCTAGAGGCCTGGGAATGCCTAG,-1.01
2,TATCAGGCAGGATATTCCAAAAGGGCAGCA,1.16
3,TTTCCATCGCCCTTATCAGAAGGAAAGTCT,0.629
4,CGAAGATAACCTACTTAAAAAGAAATAGCC,-1.29
5,GGTGGATACTTTGACTGAGACTGCCTCAAA,-1.36
6,CAGCTTCCCCACTTATTACCGGTGTGACTT,1.44
7,TCAGGCCGTGGTGTATGATGACGCCACGCC,-1.31
8,ACGCTGCTAATCCTACTTTATCTAAGTAAA,-1.31
9,ACTATTTACTTAATCCCTTGGAATGTCCTT,1.68
10,AAAAGAGAGAGAATGTCCTCCCTGAGTCAG,-1.31
11,TGTATGTGGCAGGCACTTAGCAAATATTTA,-1.29
12,CCCCTCTCTACTGGTAAGCAAATATTTGAA,2.3
13,GGTGTTCCTCAGCCTTGAATTGGCATGAGA,-0.394
14,GTTCAAATTCCAGCTTCCCCACTTATTACC,2.24
15,GAGGGGCAGGCTTAGCTGGGCTAGCACCTG,-1.32
16,AGGAGAAAGACCCTAAACCTGTTGGGTCAG,-0.00485
17,TTTGATCAAAGGTCAGCTCTCCTTTGTCTT,4.53
18,TATTCAGAGTTAGCTAAGCTTCACTGACAT,-1.33
19,GAGAAGTGATAAATTGGCCAAAGGTGAAGG,1.25
20,ATAAGCCTGAATTCTGGAAGGACTGTCTTT,0.343
21,AACTGCTATTGGTTGTCAGACTGGTGTAGT,1.45
22,CGATAACCCTCTGGGGCCGGGAGCAGGGAG,-1.33
23,AACAATGTTATCTTTTCAAGGATGTTTATA,1.28
24,AAGCCACGGGCTATTTGGACTAGGCAAAAG,0.967
25,GCACAAGAGGGCAGTATTTGCTTACAGTCT,-1.32

row,Sequence,binding signal (log2 normalized intensity)
1,TCACCCAGAAAAGGCTGTAAACTCACTCTG,-1.31
2,TTATTTAAATTTCTTGAGGCATTTATTACA,0.229
3,AGTCAAAAACCAGTTATTTCAGTTATTTAC,-0.641
4,ATGACTCATAAAGAACAGTTATTCTTAGCT,-1.33
5,AATTACCTGGACTCTAGAGCCAGACTAGTA,2.01
6,ATACTCAGAGCCGCACCCAGCTTTCATCTC,-1.33
7,GGCAGTCGTGATAGTGACCACCTGGTGGAC,1.42
8,GGGAGAGTGAGTGAGTGTGTGTGTGTAAAA,2.24
9,TGTTTTCAATGACTACCTGTTACCCACCTG,1.25
10,TGTGCTGCCCCCGATAGCACTATTAGTCTT,3.06
11,ACTGCGTCCAGCCACAATTAATGTACCCCC,4.54
12,TAACCAGGGGTGGGGACCTTTGGGCTCTGA,3.03
13,GTGGTATTTGCTCTGTCATCAACGTATCTG,1.14
14,CTTTGATCTTCTTACCCCTTTGCTGATTAC,2.81
15,GCTGCAGCTGGGCTATACAATTCCAGCAAG,-1.39
16,ATACGTTTAACAGTTCCTCCTGGAATCTGG,0.971
17,TCCGTTAACAGCGGCATTCCTGTCAAAATC,-1.35
18,CAGCCTAACAGGATTTTTGCTGAAGACAGG,-1.18
19,CCATCGAATTCTTGTCCAACTCCCCTCCCA,4.02
20,AACAAATTGAGAAAGATTAAGAGGCTACAA,-1.38
21,TGGGGCCAAAAAATTCCAGGCACAGTTACT,-1.49
22,TGAATTTTATCACTCCATCAAGGGGATTAG,-1.37
23,TGGTACTATGACCTTTCACCTTTTAGCTTG,6.25

# Reference: publication PMC10726135
